# ± gives the standard deviation of the averaged measurements. The list shows a part of the results.
# Tested on: PfAP2-G AP2 domain (GST-tagged)
# Test: gcPBM binding intensity (ln(normalized median fluorescence intensity)); higher = stronger DNA binding
# Procedure, shortened: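 GST-tagged P. falciparum DNA-binding domains produced in E. coli were incubated for 1 h on an Agilent 4 × 180k array of primer-extended double-stranded 36-bp intergenic genomic probes with negative controls. Binding intensity is the highest Masliner-normalised natural-log median intensity across replicate spots of either probe orientation, with bound protein detected by Alexa488 anti-GST antibody at 488 nm.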
row,Sequence,gcPBM binding intensity (ln)
1,TTTTTTTTTTCAATGGCACACATTTTAGATTTATGC [CACACA_site1074],10.2 ± 0.21
2,AATAACATGTTATATACACACATTATGAAGTCTTCA [CACACA_site746],9.79 ± 0.11
3,AAGATTATAAATATATGTACATAAATATATTATATA [XGTACX_site8056],11.2 ± 0.67
4,ATTGTTTTTTTTTCTTTGTGGAATGAATGAATATAT [XGTACX_negctrl_site603],10 ± 0.19
5,ATAAAATAATGAAAAACACACATTTTTATTTGTATA [CACACA_site3369],9.62 ± 0.23
6,ATATATATATATGAATCACACACAAAAAATATAGAG [CACACA_site9298],10.3 ± 0.24
7,AAAAAAAAAAAAAAAACACACAAACATCAAATTATT [CACACA_site5083],10.3 ± 0.19
8,ATAATAATTTAATACATACACACGTATATCTTTTTT [CACACA_site2041],9.995 ± 0.092
9,TTAATAAATAAAAATGCACACAGTTAACATGTTGAA [CACACA_site1200],10.1 ± 0.21
10,GCACATAAATATATGACACACACACCGATTATATAT [CACACA_site9003],10.2 ± 0.14
11,TTTTCAATATATTAATGTACGAATACGCAAATAAGA [XGTACX_site1613],11.1 ± 0.83
12,ATACAAAAAGTAAAAAGTACTTAACTAAATATATAA [XGTACX_site2335],11.2 ± 0.79
13,ATCTTATATGATCACACACACACGCACAAAACAGAA [CACACA_site4913],10.6 ± 0.47
14,GCAGGATTGGTTCAAACACACATATTATATGACTAT [CACACA_site660],10.02 ± 0.028
15,TTTTTTTTTTTTTTTGCACACACATAATAGGTACAA [CACACA_site3578],11.3 ± 1.2
16,TTTGCACCGTTTAAGTGTACAGAATTATGACATATA [XGTACX_site6735],11.1 ± 0.67
17,TCAAAAATATTCTGGAGTACCTTTTTAAAGGTATAG [XGTACX_site6893],11 ± 0.61
18,TTTATATATATATATATATATAATAAATGATACACA [TGCATGCA_negctrl_site392],9.79 ± 0.19
19,TATTTTTTTTCTTATACACACCATGCATCAAACTAA [CACACA_site5208],10.4 ± 0.38
20,TGTGGTTACATGTGCACACACTTATTTCGTTCTTAT [CACACA_site4907],10.8 ± 0.33
21,TAAATATATATATACACACACATACACAAAAAAAAA [CACACA_site3580],10.2 ± 0.18
22,ATTGCATATAATGGCACACATAAATCCATAATATAT [CACACA_site297],10.13 ± 0.092

row,Sequence,gcPBM binding intensity (ln)
1,TTTTATTCCTTCTTTGCACACGTTTAAAAATATATA [CACACA_site2899],10.4 ± 0.33
2,AATATAATATAAGGATCACACACAAACACCCATATA [CACACA_site8084],10.3 ± 0.23
3,TAATCGAAACAAAGAACATGCAAACATATACCTATA [TGCATGCA_site894],9.865 ± 0.049
4,CAAAATTTATGTAAAAGTACAAAAATATAGAAAGAT [XGTACX_site1122],11.1 ± 0.56
5,TGTGTTCATCTATGCACACGCATATATATTATTGTT [CACACA_site5985],9.89 ± 0.014
6,TAAAAAAAAAAAAAAACACACATATAAATATATATA [CACACA_site1243],9.51 ± 0.085
7,AAAATTAAAAAGAACACACAAATATATCTATAATAA [CACACA_site7660],9.81 ± 0.26
8,TAAGTTATATGTATATGTACTTATATATATATATAT [XGTACX_site5402],11.1 ± 0.79
9,ATTAAAAAAATTAAAAGTACACATATTTCAATGATA [XGTACX_site5606],11.6 ± 0.92
10,TAAAAAAAAAAAACAAGTACATATATAAATATATAT [XGTACX_site7537],11.2 ± 1.1
11,TTTTTATTTAATAATATATTAATCATATAAATAAAT [GTGCAC_negctrl_site210],9.48 ± 0.11
12,TATTTAATTACATGAACACACATTATGTATTTTTAA [CACACA_site2962],9.855 ± 0.064
13,GTATGTTTGTTATGCACACAAATGCATCTTATTTCC [CACACA_site2690],10.3 ± 0.18
14,TTTAATTATAAGATAACACACAAAAAAAATAAAATA [CACACA_site254],10.1 ± 0.21
15,TTTATATAAAAAAATTGTACATATTTATTATAAACA [XGTACX_site2124],11.1 ± 0.78
16,TGTATGCATATTTGATGTACGCACATATACTAATTT [XGTACX_site3159],11.5 ± 0.83
17,TATATTCTTATTATTGCATGCTGCACGAAGATTTTC [TGCATGCA_site831],9.88 ± 0.028
18,ATAATAAATAAAATAACACACATATATAGATATATA [CACACA_site6224],9.84
19,TTTTCATTAAATATATATGCATACCATATGTACATT [GTGCAC_negctrl_site539],10.9 ± 0.74
20,TATGTAAAGAGTAAGGGTACATGTATAATACGGCTC [XGTACX_site1283],11.2 ± 0.64
21,AATTTCAAATTGTATGTGCACATGTAGAAGTACTTT,11.4 ± 0.98
22,GTGCCTTTAAAAAAAAGTACAAAAAAGAACGAATTA [XGTACX_site3714],11.5 ± 0.97

row,Sequence,gcPBM binding intensity (ln)
1,AAAAAAAAAAAAAGCACACACACATATGAGTATATA [CACACA_site4682],10.08 ± 0.099
2,TATATATATATATATTGTACATTTTTTTTTTTTTTT [XGTACX_site7891],10.8 ± 0.74
3,AAATACTATATCAAGCGTACTTATTTCATGGTAATA [XGTACX_site7878],11.3 ± 0.72
4,TTTAAAATATTTTCTTGTACGAAGGAACATTTCTTA [XGTACX_site4013],10.6 ± 0.43
5,TCGACAAAGGCATATACACACATTTGTAACATAAAT [CACACA_site4471],9.97 ± 0.014
6,GTTTTTTTGTTTTAGTGTACCTAAAACTGCATGTAG [XGTACX_site294],11.4 ± 0.7
7,TTATGGATAAATAAATGTACGTTAAGATAACACAAA [XGTACX_site4208],11 ± 0.7
8,ATTTCTCTATAGTAATGTACAAAAAAAAGGAAAAAG [XGTACX_site2757],10.8 ± 0.46
9,ACATAAAATAAATATACACACATATGTATTTATTAT [CACACA_site5648],9.85 ± 0.057
10,AAACCGAATTTACATGAATGTAAATTATGTTGTTTT [CACACA_negctrl_site1834],9.53 ± 0.13
11,CAAGAATAAAAATACAAGCACACATGTATGAAATAT [CACACA_site3214],10.08 ± 0.014
12,ATTTCATTAAAGATTACATGCAATTCTATATTATTT [TGCATGCA_site260],9.77 ± 0.13
13,AATTAATTTATTTTATAAATAGTTAGATCGTCATAA [GTGCAC_negctrl_site660],9.9 ± 0.13
14,ACTTTCAAGGATGTACGTACATATGTATTTTATAAC [XGTACX_site6714],11.7 ± 0.91
15,AACATAAATTACTTTTTACACACTAATATAAAATAC [CACACA_site8297],10.2 ± 0.28
16,AATTGCTCGATATATGCACACAGTTTTGTTATTTTT [CACACA_site8465],10.1 ± 0.057
17,AAAACACGCGGACACACACACACACGCCCACATATA [CACACA_site7105],11.5 ± 0.89
18,AAAAAAAAAACAAATACACACGCACCCAAAAAAAAA [CACACA_site8166],10.5 ± 0.26
19,TTTTATATATATATATATATATATATATATGTATAT [CACACA_negctrl_site173],9.57 ± 0.23
20,AAATGAAAGAACAGCACACATATATATTATATATAA [CACACA_site2002],9.885 ± 0.078
21,TTTTTTATGATTAACACACACACAAAAAAAAAAAAA [CACACA_site4130],9.99 ± 0.43
22,TCATGTAACCATTCATGTACTCAAAAAAAAAAAAAA [XGTACX_site1027],11.3 ± 1.1

row,Sequence,gcPBM binding intensity (ln)
1,TCTGTAAATATGTATACACACATATCTGATCAATAT [CACACA_site5743],10.2 ± 0.11
2,AACATATTTTTTCTTAAACACACACCGATATATATA [CACACA_site8919],10.2 ± 0.29
3,AATATATATTTCTAAGATAAAACCCAAGGATAAAAA [CACACA_negctrl_site735],10.1 ± 0.11
4,GCCCCCAAATTATGTGTGCACTTTATATTCCTGAGA [GTGCAC_site9474],11.1 ± 0.77
5,ATTGTGTGAACAAAATGTACATTTTCTCTACATTAA [XGTACX_site1333],10.9 ± 0.52
6,TGGCATATATATAAATGTACTTTCTTTCTATCTGTT [XGTACX_site8483],10.9 ± 0.54
7,TAATAAAGTATTTTGCGTACTTATTTTATTCTTCTA [XGTACX_site2095],11.4 ± 0.88
8,TATTTTATAATAGGCACACATATAAAAATATATATA [CACACA_site4127],10 ± 0.19
9,TAATTTTTTTTAAATACACACTGAAATGTGAATTTT [CACACA_site4476],9.755 ± 0.021
10,TTATATATATGTAATTGTACTTTTAATTTTTTTTTA [XGTACX_site4357],11.2 ± 0.62
11,ATATATATATATAATGCACACATTATGAATTATGTA [CACACA_site3384],9.9 ± 0.42
12,AAACAAAATGGTAACACACACATATATATATATATA [CACACA_site1939],10.2 ± 0.27
13,GTGTGATCTTTTGAAAGTACATTTTTTTTTTTTTTT [XGTACX_site6311],11.2 ± 0.62
14,ATAAAAATAAAAGACGCATGTTCTTAAAATAAGAAC [TGCATGCA_site189],9.91 ± 0.014
15,TGAACACCCAAATACACACACTCAAAAAAAAAAAAG [CACACA_site5467],10.3 ± 0.4
16,ACAAGAATACACCACGCACACACACTAGAGAAAAAA [CACACA_site9276],10.5 ± 0.46
17,AGGTCATACATAAAATGTACATATATATAAATATAT [XGTACX_site7147],10.9 ± 0.54
18,AATTGTTTGTTTGGGTGTACATGGTTCTATATAAAT [XGTACX_site7940],11.4 ± 0.6
19,TAAAGGAGCCTATGAACACACACATGTACTTATATT [CACACA_site9351],11.3 ± 0.76
20,ATTTTTTCTTTTTTTTTTCCGTTTTTTTGGACATTT [CACACA_negctrl_site1174],10.1 ± 0.45
21,AATAAAATATAAACATTATATATATATATATATATA [GTGCAC_negctrl_site58],10.2 ± 0.99
22,AACAAGGTATTAGGGTGTACTATATATATTTATATT [XGTACX_site7776],11.2 ± 0.69

# — the supplement of paper PMC11417369
